# Test results published in the supplement of paper PMC11417369.
# ± gives the standard deviation of the averaged measurements. The list shows a part of the results.
# Tested on: PfAP2-LT AP2 domain (GST-tagged)
# Assay: gcPBM binding intensity (ln(normalized median fluorescence intensity)); higher = stronger DNA binding
# Procedure, shortened: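 GST-tagged P. falciparum DNA-binding domains produced in E. coli were incubated for 1 h on an Agilent 4 × 180k array of primer-extended double-stranded 36-bp intergenic genomic probes with negative controls. Binding intensity is the highest Masliner-normalised natural-log median intensity across replicate spots of either probe orientation, with bound protein detected by Alexa488 anti-GST antibody at 488 nm.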
row,Sequence,gcPBM binding intensity (ln)
1,GAAAACATTAAAAGTTAGATCATAAGAAAAGAATAT [GTGCAC_negctrl_site726],8.84 ± 0.48
2,GTTCATCACATATACACATGCATATTCTAATATGTA [TGCATGCA_site809],8.95 ± 0.41
3,ACATTATATAAAATATGTACATATAAAAAATTCTAT [XGTACX_site1617],8.88 ± 0.48
4,CATATATGTGATAACACGCACACAAATGTATAGAAT [CACACA_site2594],9.54 ± 0.49
5,TTATCATTTGGACACGCACACACACCGAAAAAGAAA [CACACA_site8008],9.6 ± 0.24
6,TTTTTGTAATTATATTAATATATATATATATATATA [CACACA_negctrl_site198],8.84 ± 0.18
7,TTTTTTGCTAAAAAGAGTACTAATAAAAAATTTATT [XGTACX_site5235],8.11 ± 0.42
8,AATAATTTAAGGAATACACACAAGAAAAAAATAAGA [CACACA_site60],9.18 ± 0.42
9,CCACATATACAAAACACACACACAACGTTTTAATAA [CACACA_site1978],9.64 ± 0.37
10,ACAAGAGAAGTAATTGCACACGTTGTTTCTTTTTCT [CACACA_site35],9.12 ± 0.33
11,ATAATAATATAAAATACACACCTATTATTTTTACAA [CACACA_site6069],8.81 ± 0.47
12,TCACTATAGTAATTTACACACATTTGAAGAAAATGT [CACACA_site7626],9.03 ± 0.37
13,TATTTATTTATTTATGCATGCATGAATAATTTTTAC [TGCATGCA_site31],8.88 ± 0.28
14,ATTATTTAGAAATGAGCACACAAAAAGAAGAATTTT [CACACA_site7913],8.71 ± 0.58
15,TTTTAAATTTTTTAAAGTACACGTCGAAAAGGTATA [XGTACX_site76],8.24 ± 0.42
16,AAGAATTATATATTCACACAAAAAAAAAGTAAAAGA [CACACA_site5335],8.72 ± 0.52
17,TATAATATATATATATGTACATATTATTTACATATA [XGTACX_site7312],8.8 ± 0.43
18,AATATATTAAATCTTACACACTAAAAAATATGTAAC [CACACA_site4325],8.75 ± 0.42
19,AAAAAAAAAAAAAAGAGTACATTTATTTATATATCT [XGTACX_site2381],8.46 ± 0.33
20,TTTTAACATAGAAGTACACACATATAATCAATCATA [CACACA_site5313],8.93 ± 0.47
21,ATAAAGAAAATATGGAGTACATTTATATCCAATATA [XGTACX_site3085],8.69 ± 0.43
22,TTTTATGAAAAATGGCTTATCTGTAAAGAAGTGGAG [CACACA_negctrl_site1586],8.41 ± 0.3
23,ATATTTGTAATTATTAAACACACACTAATTATATAT [CACACA_site8803],9.04 ± 0.38

row,Sequence,gcPBM binding intensity (ln)
1,AAATATATACTACCGATGCACTAAATATAAACACAT [GTGCAC_site9777],9.02 ± 0.36
2,TTAATTTTTGAAGGTACACACTAATATATTAAATAT [CACACA_site4791],8.53 ± 0.4
3,AAAACAGACAAACACACACACACATATATATATATA [CACACA_site3393],10.37 ± 0.071
4,CTTTTAATTATAAAATGTACTTAAAAATAATAATAC [XGTACX_site635],8.3 ± 0.47
5,AAAATGAAACAAATATGTACACATATAAATATTTCC [XGTACX_site54],8.94 ± 0.52
6,TTATCCCCCTATCATTGTACATTAATACAAACTAAA [XGTACX_site5630],9.21 ± 0.085
7,ATATATTTATTATTAGGTACACATATATATATATAT [XGTACX_site5045],9.32 ± 0.11
8,TTAAAAAAAAATAAAGGTACACGGAGAAATCCTTTT [XGTACX_site7509],8.46 ± 0.53
9,AACCACCACACCATCACACATAAGATTAGACGAGTA [CACACA_site6063],9.17 ± 0.34
10,TGTAGTAATGCTTATTGTACATATACATTTCTTACA [XGTACX_site219],8.82 ± 0.42
11,TTATATAGAATTAATTTCTTTTTTTTCTTTTTTAAA [CACACA_negctrl_site1308],7.95 ± 0.61
12,ATTTTTTTTTTTTTTTCATGAAATTTTTTTTTTTTT [CACACA_negctrl_site1069],8.71 ± 0.49
13,AAATATTTTTTAATTGTTCACTTGGTGGATCATTAA [CACACA_negctrl_site922],8.43 ± 0.41
14,TATCCATTATTTAAAAGTACAAAAAACGATTTACAC [XGTACX_site2979],8.6 ± 0.38
15,TTTTTTTTTCGCTTTTGTACACATTTTATAGAACAG [XGTACX_site2416],8.73 ± 0.45
16,TATTATATATATGGAAGTACAGGTATATCGTTTTTC [XGTACX_site3771],8.73 ± 0.4
17,TTTTCCCTTAACCTCTGTACATATAATTTTCTTTCC [XGTACX_site4180],8.84 ± 0.61
18,TAGAATATGTTTAGTTGTACAAAACAAAATGGAATT [XGTACX_site5293],8.96 ± 0.46
19,CACATAAAAAAATAAACACACATATGTATATATATA [CACACA_site3177],9.13 ± 0.42
20,ATTTATTTTTTGTGTTCACACATTAGTATCATCTAT [CACACA_site5274],9.1 ± 0.58
21,AAATAAGAAAAAGCGCGTACACATAACATTTTTATA [XGTACX_site8807],9.09 ± 0.45
22,TGCTTTTCTTTTTGCACACTTATGCATATATATATA [CACACA_site2583],9.23 ± 0.38
23,TGTATTCTCTTAGTAGTGCATTTGAAGATTATATAA,8.53 ± 0.36

row,Sequence,gcPBM binding intensity (ln)
1,TTTATTCAAGGAATAGTGCATAATAATAAGTATTAT,8.6 ± 0.45
2,TCTAATGATATATACACACACATATAGATTTATATA [CACACA_site7044],9.15 ± 0.33
3,ATTTTTCTAAAATACTGTACAAAGGTGCATAAAAAG [XGTACX_site4425],8.54 ± 0.42
4,ATATTTATGGAATATACACACATGTATAATTATATA [CACACA_site2033],8.9 ± 0.4
5,TTTTCTGTTTTCATTACACACCTTACAAGAACAATA [CACACA_site2158],8.69 ± 0.45
6,ATATGGAATGATCATAGTACATAATTTAAAATTTTA [XGTACX_site3568],8.73 ± 0.51
7,CTAATTCGTATATGCTGTACCTTTTTCTTACGACTA [XGTACX_site4392],9.07 ± 0.53
8,ACCCTATTTATATATACACACACATATATAAATAAA [CACACA_site8980],9.17 ± 0.28
9,AACATATATAATATTTGTACTTATATACAAAATATG [XGTACX_site7502],8.64 ± 0.4
10,TGTCCTTATTGGCACACACACATATAAGAAATTTAA [CACACA_site5724],9.18 ± 0.45
11,TATTTTTTCTTAAACACACACATATAGATTTATAAC [CACACA_site7354],8.92 ± 0.38
12,TTTTTTAAAGCCTGTTCATCATCCTTACCTATCAAC [GTGCAC_negctrl_site452],8.68 ± 0.52
13,AAAGTATACAATGACGCATGCATATATATATACATA [TGCATGCA_site429],9.31 ± 0.26
14,ATTTATTTATCTAGCTATTCACCATTTTCTTTTGTT [CACACA_negctrl_site1259],9.03 ± 0.47
15,ATAGGATGTTTGCACTGTACCAAAAAATGAGCTGCA [XGTACX_site2825],8.77 ± 0.42
16,ACTTTTTTGAACAACGTGCACGTATTCATAACAAAA,8.6 ± 0.34
17,ATCAGATATATATATTGTACATTTATATATAAATCA [XGTACX_site1960],8.62 ± 0.46
18,CTATAATAGAAGTGTACACACATATTTATGTCTGTA [CACACA_site7462],9.02 ± 0.45
19,TTTTCTTTATTATAATGTACTCACAAATAAATATAA [XGTACX_site7298],8.23 ± 0.45
20,TTTCATTTTAGAAGTACACACAAAAAATAAAATAAT [CACACA_site2141],8.79 ± 0.4
21,AATATCACATTCCACGGTACACACTAAAAGAAAAAT [XGTACX_site7653],9.12 ± 0.43
22,ATAAATACGATTAATTAGGTTTGTATAAATTAAATT [GTGCAC_negctrl_site635],8.55 ± 0.46
23,TCATGTAGTAAAAACTGTACAAATTATTTATCATGT [XGTACX_site1727],8.71 ± 0.39

row,Sequence,gcPBM binding intensity (ln)
1,ATAACTTTTGCGCGTACACACATTTATCCTCTTTAT [CACACA_site209],9.62 ± 0.33
2,CTTAAAAACAAAAATGCACACATAATAAGCATATGT [CACACA_site9149],9.04 ± 0.4
3,ATTAAACTCATTAAGAGTACAGATAACATTAAAGTA [XGTACX_site8697],8.72 ± 0.49
4,TGAAATTAGATATATACACACATATAGATTTATATG [CACACA_site7619],8.88 ± 0.36
5,GATGGGCAAATTTACTGTACTTTTATAATATTTTTT [XGTACX_site4830],8.85 ± 0.43
6,TATAATGGTAAAAACACACAAATATGAAGATGTTAA [CACACA_site6479],8.89 ± 0.41
7,AAAATTGTGAAAGGGAAGATGATCAAATTGTTAAGG [CACACA_negctrl_site1492],8.8 ± 0.66
8,GTACCTATAAATATTACACACATTTTCATTTTTAAC [CACACA_site7022],9.11 ± 0.35
9,AAAAAAAATTATATTTGTACGCATTAAAAAATCTAA [XGTACX_site1616],8.39 ± 0.33
10,CTTTTTCTTTTCCGGCGTACAGACTTAGTAGTAGAT [XGTACX_site2268],8.72 ± 0.36
11,TACTTCATTCATTTTACACACATATAAACCCTTTTA [CACACA_site3229],9.15 ± 0.47
12,TAAAATATAGGAAATACATGCATATTAAATATTCCT [TGCATGCA_site1057],8.73 ± 0.38
13,TACATGCAAAAAATTCCACACACACCCCCACATATA [CACACA_site8329],10.1 ± 0.27
14,TATATAGCTAAAAACACACAAATATGTACACATAAA [CACACA_site7665],9.09 ± 0.4
15,ACTAATACATAAAAAAGTACAAATATGAGTATTAAC [XGTACX_site7281],9.03 ± 0.47
16,AATATTCAATATAAAGTGCATTATTGTGGACCTAAT,8.85 ± 0.42
17,AAATATACATACATATGTACATATATATATATATAT [XGTACX_site8202],9.57 ± 0.14
18,ACAATAAAGAACAGTATGCACTTTTATGCATGCGTA,8.79 ± 0.39
19,ATAGTTAAAAAAAAAAAAAAAAAAAAAAGAGAGAGA [CACACA_negctrl_site1307],8.53 ± 0.54
20,GGGTATACCAATATAACACACATATATATATAATAT [CACACA_site450],9.26 ± 0.42
